Measured values reported in ChEMBL document CHEMBL4888484, “Replenishing the malaria drug discovery pipeline: Screening and hit evaluation of the MMV Hit Generation Library 1 (HGL1) against asexual blood stage Plasmodium falciparum ,using a nano luciferase reporter read-out” (2022).
Hit rate of the full screen: of about 150,000 compounds, about 540 (0.36%) showed an effect of 50% or more. Some of the results follow.

System: Plasmodium falciparum
Test: Primary screen in NF54 nanoGlo assay, in single point, at 2uM, 72h; a lower Z score goes with more inhibition
Assay type: functional, Erythrocyte
Settings: timepoint 72 hour

SMILES	% Inhibition [%]	Z score
Cc1cc(N2CCOCC2)n2nc(CN3CCC[C@H](C)C3)nc2n1	-4	0.51
COC(C)C(=O)N1CCOC(c2ccc(Br)cc2)C1C (centres undefined)	0	0
CCn1c(C)cc(C)c(-c2nc(Cc3ccc(OC)cc3)n[nH]2)c1=O	-12	1.42
Clc1cc(CN2CCCN(C[C@H]3CCCO3)CC2)cc2c1OCCO2	-2	0.37
C[C@H](NC(=O)N(C)CC(F)F)c1ccc(OCC(F)(F)F)cc1	-5	0.98
CCn1cnc2c(c1=O)CCN([C@H]1CCN(c3cc(OC)cc(OC)c3)C1=O)C2	-7	0.76
Cc1ccc2c(c1)C(NC(=O)c1nccnc1C(N)=O)C(C)C2 (centres undefined)	-4	0.34
COc1cncc(CN2C[C@@H]3CN(C(=O)c4cnn(C)c4C)C[C@]3(C)C2)n1	7	-1.14
Cc1cc(Oc2ncccn2)ccc1NC(=O)N1CCOCC1	40	-1.4
CCC(=O)N1CC[C@H](Nc2ccc(Br)cc2C#N)C1	3	-0.28
CC1CN(C(=O)Cn2cc(NC(=O)c3cnn(C(C)(C)C)c3)cn2)CC(C)O1 (centres undefined)	-5	0.81
O=C(NCCc1csc(-c2ccccc2)n1)c1ccncc1Cl	4	-0.77
Cc1cccc(NC(=O)C2[C@H]3C=C[C@@]4(O3)C(C(=O)NC3CCCCC3C)N(C3CCCCC3)C(=O)[C@@H]24)c1 (some centres undefined)	-6	0.88
O=C(NC[C@@]1(CCO)CCOC1)c1occ2c1CCC2	-1	0.22
Cc1ccsc1CN(C)Cc1cc(CN2CCCC2)cs1	-7	1.05
CCOC(=O)c1csc([C@@H]2CCCN2c2ncccn2)n1	-8	1.1
Oc1ccc2cc(CN3CCC[C@H](CN4CCCC4)C3)ccc2c1	97	-3
CC1CCC(NC(=O)c2cc(N3CCC[C@H](C)C3)nc3ccccc23)CC1 (some centres undefined)	3	-0.48
CC(CO)(CO)NC(=O)C(F)(F)c1ccccc1C(F)(F)F	-12	1.3
CCCCCc1nnc(NC(=O)N2CC[C@H](C(N)=O)C2)s1	-1	0.25
COc1ncccc1C(=O)N[C@H]1CCN(Cc2ccsc2)C1	-8	1.29

SMILES	% Inhibition [%]	Z score
Cn1cc(CCC(=O)OCC#Cc2ccc(Oc3ccccc3)cc2)cn1	0	0
CCc1nn(C)cc1NC(=O)c1cccnc1NC	2	-0.33
CC1(C)CN(S(=O)(=O)c2cccnc2)c2c(Br)cccc21	-7	1.04
O=C1CC[C@@]2(CCCN(c3ncccc3F)C2)CN1Cc1ccccc1	9	-1.35
O=C(NCCc1csc(N2CCCC2)n1)c1c(F)ccc(O)c1F	-14	2.2
CCCCC(CC)CNC(=O)[C@H]1CCC(=O)N1 (some centres undefined)	-4	0.47
CNC(=O)c1nnsc1N1CCC(Cc2ccccc2)CC1	-2	0.28
Cc1ccc(Cl)cc1NC(=O)CN1CN(c2ccccc2)c2ncccc2S1(=O)=O	-14	1.55
CCc1cnc(NC(=O)COC[C@H]2CCCO2)o1	0	0.01
COC(=O)[C@@H]1C[C@H](O)CCN1C(=O)c1c(-c2ccccc2)noc1C	10	-1.21
CC(C)Cc1cc(C(=O)OC[C@H]2CCCO2)[nH]n1	2	-0.46
CCCc1nc(C(=O)N2CCC3(CC2)C(=O)N(C)c2ccccc23)cs1	-17	3.19
CCS(=O)(=O)[C@@H](C)c1nc(C2CC2)nn1-c1ccc(C)c(C)c1	1	-0.23
Cc1nc(-c2cc3ncccn3n2)n(C(C)(C)C)n1	-6	1.19
COc1cncc(S(=O)(=O)NCc2ocnc2C)c1	-7	1.27
O=C(Nc1ccn(-c2ccccc2)n1)NC1CCOC(C2CC2)C1 (centres undefined)	-6	0.49
CC(C)(C)n1ncn(Cc2nccn2C(F)F)c1=O	-10	1.15
CC(C)(O)CNS(=O)(=O)c1ccc(Cl)cc1	3	-0.43
O=C(O)C[C@H]1CNCCN(C(=O)CCCCc2ccccc2)C1	-13	1.71
CCc1noc(CN2C[C@@](C)(Cc3ccc4c(c3)OCO4)CCC2=O)n1	-13	1.17
Cc1noc(C)c1N(C)C(=O)Nc1cccnc1	-2	0.36
